# Source: PubChem BioAssay (Tox21)
# Several values for one entry are separate records, joined by “and”; a condition that tells them apart may be missing. Equal values may be shown once. Inconclusive means that the source gave no clear call. Such entries were picked first, then a sample of the others. For part of these data: Where the call is inconclusive, the potency comes from a doubtful curve fit. Where a structure was tested more than once in an assay, its records may differ in their call. Activity calls are given as the source filed them. Unless noted, calls come from the whole dose curve; as a rule, active = well fitted curve in the direction sought with a large enough effect in the repeat runs; inconclusive = weak or mixed curves; inactive = no such curve, though single readings can be large; an effect the other way counts as inactive or inconclusive.
# What was measured:
# [1] = qHTS assay for small molecule agonists of the p53 signaling pathway (AID 651631; calls by dose curve; note: nearly all actives have a fitted effect of over 15% in size; note: potency is the fitted concentration of half-maximal effect; for activation: % is set by controls: 0 for no effect and ±100 for the full control effect); details: HCT-116 p53RE-bla reporter, beta-lactamase FRET ratio, 16 h; activation: at 73.3 µM (top of the series) unless noted
# In short: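 Quantitative high-throughput format: 4,000 p53RE-bla HCT-116 cells/well, 5 h pre-incubation, 16 h compound exposure at 37 °C, 2 h room-temperature substrate step, fluorescence intensity measured.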
# [2] = qHTS assay to identify small molecule antagonists of the thyroid receptor (TR) signaling pathway (AID 743065); note: nearly all actives have a fitted effect of over 55% in size; note: potency is the fitted concentration of half-maximal effect
# In short: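 GH3.TRE-Luc rat pituitary cells (two TREs driving luciferase) were dosed with compound, then stimulated with 1 nM T3 (final) for 23.5 h at 37 C. ONE-Glo luminescence was the read-out, with CellTiter-Fluor fluorescence as the cytotoxicity counter-screen.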
# [3] = qHTS assay to identify small molecule agonists of the farnesoid-X-receptor (FXR) signaling pathway - cell viability counter screen (AID 743218); details: FXR-bla HEK293T viability, CellTiter-Glo luminescence, 16 h; viability change, negative = cytotoxic: at 62.6 µM (top of the series) unless noted; note: nearly all actives have a fitted effect of over 45% in size; note: potency is the fitted concentration of half-maximal effect; for viability change, negative = cytotoxic: % is set by controls: 0 for no effect and ±100 for the full control effect
# In short: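 FXR-UAS-bla HEK 293T cells exposed to compounds for 16 h at 37C. Cytotoxicity read in the same wells by CellTiter-Glo luminescence after 30 min at room temperature, following the beta-lactamase FRET read.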
# [4] = qHTS assay to identify small molecule antagonists of the vitamin D receptor (VDR) signaling pathway - cell viability counter screen (AID 743225); details: VDR-bla HEK293T viability, CellTiter-Glo luminescence, 16 h; viability change, negative = cytotoxic: at 61 µM (top of the series) unless noted; note: nearly all actives have a fitted effect of over 50% in size; note: potency is the fitted concentration of half-maximal effect
# In short: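 Luminescent cell viability (CellTiter-Glo) in VDR-bla HEK 293T cells after 16 h compound exposure at 37C in the presence of 3 nM final 1-alpha,25-dihydroxy vitamin D3.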
# [5] = qHTS RealTime-Glo MT Cell Viability Assay in HEK293 cells - 8 hour (AID 1224887); note: top concentration of the series differs between compounds; % is set by controls: 0 for no effect and ±100 for the full control effect; nearly all actives have a fitted effect of over 50% in size
# In short: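 600 cells/well were plated with the nonlytic NanoLuc/prosubstrate reagent, pre-incubated 5 h, then given 23 nL of compound in DMSO. Incubation at 37 C for 40 h, with luminescence from viable-cell-reduced substrate read repeatedly from 0 h.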
# [6] = Caspase-3/7 induction in CHO-K1 cells by small molecules, qHTS cell viability counter screen (AID 1346979); note: potency is the fitted concentration of half-maximal effect; nearly all actives have a fitted effect of over 35% in size
# In short: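 Multiplexed with Caspase-Glo 3/7 in CHO-K1 cells, this counter screen added CellTiter-Fluor after 16hr of compound exposure and recorded fluorescence 1hr later.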
# [7] = qHTS assay for identifying genotoxic compounds that show differential cytotoxicity against isogenic chicken DT40 cell lines with known DNA damage response pathways - Rad54/Ku70 mutant cell line (AID 743015); details: DT40 Rad54/Ku70 mutant viability, CellTiter-Glo, 40 h; activity change, negative = cytotoxicity: at 66.8 µM (top of the series) unless noted; note: nearly all actives have a fitted effect of over 60% in size; note: potency is the fitted concentration of half-maximal effect
# [8] = qHTS RealTime-Glo MT Cell Viability Assay in HEK293 cells - 24 hour (AID 1224886); note: nearly all actives have a fitted effect of over 50% in size; note: potency is the fitted concentration of half-maximal effect; for activity change, negative = cytotoxicity: top concentration of the series differs between compounds; % is set by controls: 0 for no effect and ±100 for the full control effect
# In short: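 Nonlytic real-time viability readout: viable cells convert prosubstrate to NanoLuc substrate, giving luminescence proportional to live cell number. HEK293, 600 cells/well, compound added after 5 h, continuous culture at 37 C.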
# [9] = molecular target: Estrogen receptor beta (Homo sapiens) (UniProt Q92731); assay: qHTS assay to identify small molecule agonists of the estrogen receptor beta (ER-beta) signaling pathway (AID 1259377; active = well fitted activation curve with a large enough effect in the signal ratio in the repeat runs, not every such curve was filed as active; inconclusive = weak or mixed curves, or effect the other way; the % refers to the signal ratio; note: potency is the fitted concentration of half-maximal effect); details: ER-beta-UAS-bla HEK293T, beta-lactamase FRET ratio, 16 h; activation: at 92.4 µM (top of the series) unless noted
# In short: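 Screening used GripTite ER-beta-UAS-bla cells held in 2% charcoal-stripped FBS medium. After overnight (16 hr) compound incubation at 37C, beta-lactamase activity was detected with a FRET substrate by fluorescence.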
# [10] = qHTS assay to identify small molecule antagonists of the estrogen receptor alpha (ER-alpha) signaling pathway using the BG1 cell line - cell viability counter screen (AID 743081); details: BG1Luc4E2 viability, CellTiter-Fluor, 22 h; activity change, negative = cytotoxicity: at 70.3 µM (top of the series) unless noted;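 note: compound given together with 17beta-estradiol as the ER stimulus; potency is the fitted concentration of half-maximal effect; nearly all actives have a fitted effect of over 45% in size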
# [11] = qHTS assay to identify small molecule agonists of the estrogen receptor beta (ER-beta) signaling pathway - cell viability counter screen (AID 1259380); note: potency is the fitted concentration of half-maximal effect; nearly all actives have a fitted effect of over 30% in size
# In short: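 ER-beta-UAS-bla HEK293T cells in medium with 2% charcoal-stripped FBS, pre-incubated 6 hr, then treated 16 hr at 37C. Cytotoxicity read in the same wells by CellTiter-Glo luminescence after 30 min at room temperature.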
# [12] = qHTS assay to identify small molecule antagonists of the peroxisome proliferator-activated receptor delta (PPARd) signaling pathway - cell viability counter screen (AID 743213); details: PPARd-bla HEK293H viability, CellTiter-Glo luminescence, 17 h; viability change, negative = cytotoxic: at 62 µM (top of the series) unless noted; note: potency is the fitted concentration of half-maximal effect; nearly all actives have a fitted effect of over 50% in size
# In short: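 HEK293H PPARd UAS-bla cells, 5 h pre-incubation, compound + L165041 300 nM final, 17 h 37 C; B/G FRET substrate 2 h RT; then CellTiter-Glo 30 min RT, luminescence.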
# [13] = Caspase-3/7 induction in HepG2 cells by small molecules, qHTS cell viability counter screen (AID 1346981); note: potency is the fitted concentration of half-maximal effect; nearly all actives have a fitted effect of over 30% in size
# In short: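 Wild-type HepG2 cells, 2,000/well, settled 5 hr at 37 C, 5% CO2 before compound addition. Viability read by CellTiter-Fluor fluorescence, reagent added after 16 hr compound exposure, then 1 hr at 37C, in the same wells as the caspase read.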
# [14] = molecular target: Vitamin D3 receptor (Homo sapiens) (UniProt P11473); assay: qHTS assay to identify small molecule agonists of the vitamin D receptor (VDR) signaling pathway (AID 743222; calls by dose curve; note: potency is the fitted concentration of half-maximal effect); details: HEK293T VDR-UAS-bla, beta-lactamase FRET ratio, 16 h; activation: at 63.5 µM (top of the series) unless noted
# In short: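 VDR-bla cells plated 4 h at 37 C, then exposed to compounds for 16 h at 37 C. Beta-lactamase reporter activity measured by fluorescence after 2 h room-temperature loading with LiveBLAzer B/G FRET substrate.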
# [15] = qHTS assay to identify small molecule antagonists of the estrogen receptor alpha (ER-alpha) signaling pathway - cell viability counter screen (AID 743074; calls by dose curve;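 note: HEK293 cells carrying ER-alpha-UAS-bla reporter stimulated with 17beta-estradiol; potency is the fitted concentration of half-maximal effect; nearly all actives have a fitted effect of over 45% in size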)
# [16] = qHTS assay to identify small molecule agonists of H2AX - cell viability counter screen (AID 1224847; calls by dose curve; note: potency is the fitted concentration of half-maximal effect; nearly all actives have a fitted effect of over 30% in size)
# In short: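 Read-out: CellTiter-Glo luminescence, 30 min RT. Cells: wild-type CHO-K1, 1000/well, 10% FBS, plated overnight at 37C. Treatment: 15 concentrations, 3 hr, 37C, 0.76% DMSO.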
# [17] = qHTS assay for small molecule activators of the heat shock response signaling pathway (AID 743210; active = well fitted activation curve with a large enough effect in the signal ratio in the repeat runs, with a control signal flat, not every such curve was filed as active; inconclusive = weak or mixed curves; the % refers to the signal ratio; note: % is set by controls: 0 for no effect and ±100 for the full control effect); details: HeLa HSE-bla reporter, beta-lactamase ratio, 5 h; activation: at 62.6 µM (top of the series) unless noted
# In short: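 HSE-bla HeLa cells (beta-lactamase reporter under heat shock response elements), plated overnight, then exposed to compounds 5 h at 37 C; LiveBLAzer B/G FRET substrate added, 2.5 h at room temperature, fluorescence intensity read.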
# Tags give direction and shape of the fitted curve or compound fluorescence and quenching.
# Chain of UniProt P11473 (P11473 whole entry, looked up): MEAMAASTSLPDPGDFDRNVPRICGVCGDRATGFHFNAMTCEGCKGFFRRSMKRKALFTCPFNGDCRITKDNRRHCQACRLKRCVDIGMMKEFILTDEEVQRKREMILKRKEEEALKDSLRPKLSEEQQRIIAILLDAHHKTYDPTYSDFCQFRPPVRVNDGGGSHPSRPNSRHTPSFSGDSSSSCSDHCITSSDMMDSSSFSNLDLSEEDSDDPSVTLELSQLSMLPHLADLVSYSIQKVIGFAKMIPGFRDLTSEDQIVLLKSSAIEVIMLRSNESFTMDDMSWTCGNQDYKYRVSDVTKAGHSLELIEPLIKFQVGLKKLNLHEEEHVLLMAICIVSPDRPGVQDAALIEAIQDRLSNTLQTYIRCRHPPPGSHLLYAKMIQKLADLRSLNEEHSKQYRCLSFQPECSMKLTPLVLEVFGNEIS
# Chain of UniProt Q92731 (Q92731 whole entry, looked up): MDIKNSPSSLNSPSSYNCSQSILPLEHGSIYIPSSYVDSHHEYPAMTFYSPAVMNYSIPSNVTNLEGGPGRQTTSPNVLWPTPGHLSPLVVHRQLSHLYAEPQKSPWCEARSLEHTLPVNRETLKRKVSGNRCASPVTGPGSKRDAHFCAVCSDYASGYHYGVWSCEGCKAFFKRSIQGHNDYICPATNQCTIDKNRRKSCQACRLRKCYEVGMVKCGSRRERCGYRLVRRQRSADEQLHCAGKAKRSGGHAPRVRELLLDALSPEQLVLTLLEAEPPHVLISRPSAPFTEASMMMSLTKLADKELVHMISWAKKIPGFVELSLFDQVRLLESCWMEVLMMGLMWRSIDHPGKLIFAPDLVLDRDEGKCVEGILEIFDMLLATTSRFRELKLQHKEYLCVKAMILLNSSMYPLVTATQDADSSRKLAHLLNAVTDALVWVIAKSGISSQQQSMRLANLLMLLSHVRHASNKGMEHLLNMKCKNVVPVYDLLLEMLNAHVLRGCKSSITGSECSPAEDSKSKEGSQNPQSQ
structure (smiles),measurement,setting,value
NS(=O)(=O)c1cc2c(cc1C(F)(F)F)NCNS2(=O)=O,Potency,[1],"inconclusive: 2.27 µM [rising, partial curve, poor fit]"
same,Potency,[2],inactive
same,Potency,[3],"inconclusive: 59.6 nM [cytotoxic, full curve, poor fit]"
same,Potency,[4],"inconclusive: 10.7 µM [rising, single point]"
same,Potency,[5],inactive
same,Potency,[6],"inconclusive: 21.1 µM [rising, partial curve, poor fit]"
CCCCCCCCCCCCI,Potency,[1],inactive
same,Potency,[7],active: 27.4 µM
same,Potency,[8],inactive
same,Potency,[5],inactive
CCC(=O)Oc1ccc2c(c1)CC[C@@H]1[C@@H]2CC[C@@]2(C)[C@H]1C[C@@H](OC(=O)CC)[C@@H]2OC(=O)CC,Potency,[9],active: 0.0211 µM
CCCCN(CCCC)CCCOC(=O)c1ccc(N)cc1,Potency,[10],"inconclusive: 8.04 µM [cytotoxic, partial curve]"
same,Potency,[11],"inconclusive: 13.3 µM [cytotoxic, single point]"
C=C[C@H]1CN2CC[C@H]1C[C@H]2[C@H](O)c1ccnc2ccc(OC)cc12,Potency,[7],active: 26.6 µM and active: 13.3 µM and active: 27.3 µM
same,Potency,[10],"inconclusive: 33.5 µM [cytotoxic, single point] and inconclusive: 48.6 µM [cytotoxic, partial curve]"
same,Potency,[12],"inconclusive: 1.7 nM [cytotoxic, full curve, poor fit] and inconclusive: 2.66 µM [cytotoxic, full curve, poor fit]"
same,Potency,[3],"inconclusive: 21.9 µM [cytotoxic, partial curve] and inactive"
same,Potency,[8],"inconclusive: 43.6 µM [cytotoxic, partial curve, poor fit]"
same,Potency,[11],"inconclusive: 54.5 µM [cytotoxic, partial curve]"
same,Potency,[6],"inconclusive: 77 µM [cytotoxic, partial curve, poor fit]"
same,Potency,[13],"inconclusive: 68.6 µM [cytotoxic, partial curve, poor fit]"
CO[Si](CCCNCCN)(OC)OC,Potency,[14],"inconclusive: 5.49 µM [rising, partial curve, poor fit]"
same,Potency,[6],active: 5.53 µM
CCCCOC(=O)CC(CC(=O)OCCCC)(OC(C)=O)C(=O)OCCCC,Potency,[1],inactive
same,Potency,[7],"inconclusive: 26.6 µM [cytotoxic, partial curve, poor fit] and inactive and active: 54.5 µM"
same,Potency,[2],"inconclusive: 21.1 µM [inhibitor, partial curve] and inconclusive: 27.6 µM [inhibitor, partial curve] and inconclusive: 17.2 µM [inhibitor, partial curve, poor fit]"
same,Potency,[15],"inconclusive: 39.4 µM [cytotoxic, partial curve]"
same,Potency,[12],"inconclusive: 27.9 µM [cytotoxic, partial curve, poor fit]"
same,activation,[14],inconclusive: -10.6% [at 81.1 µM]
same,Potency,[4],"inconclusive: 39.4 µM [cytotoxic, partial curve, poor fit]"
same,Potency,[16],"inconclusive: 43.8 µM [cytotoxic, partial curve, poor fit] and inconclusive: 142 µM [cytotoxic, single point]"
same,Potency,[8],"inconclusive: 21.9 µM [cytotoxic, partial curve, poor fit]"
same,Potency,[6],"inconclusive: 61.8 µM [cytotoxic, partial curve, poor fit]"
CC(=O)OC(C)(C)Cc1ccccc1,Potency,[17],inactive
same,Potency,[4],inactive
same,Potency,[16],"inconclusive: 1.79 µM [cytotoxic, single point]"
